Data from ChEMBL document CHEMBL4888484, “Replenishing the malaria drug discovery pipeline: Screening and hit evaluation of the MMV Hit Generation Library 1 (HGL1) against asexual blood stage Plasmodium falciparum ,using a nano luciferase reporter read-out” (2022).
Hit rate of the full screen: of about 150,000 compounds, about 540 (0.36%) showed an effect of 50% or more. This is one part of the list.

Test system: Plasmodium falciparum
Assay: Primary screen in NF54 nanoGlo assay, in single point, at 2uM, 72h; a lower Z score goes with more inhibition
Format: functional, Erythrocyte
Settings: timepoint 72 hour

Row | Compound | % Inhibition [%] | Z score
1 | Cc1cc(CNC(=O)c2[nH]nc(C)c2Cl)on1 | 3 | -0.31
2 | CCn1ccnc1C(=O)Nc1ccc(Oc2ccnc3ccccc23)cc1 | 4 | -0.52
3 | COC(=O)[C@H](Cc1ccc(OC)cc1)NC(=O)[C@H]1CN(C(=O)c2cccnc2)CCN1C(=O)NC(C)C | -2 | 0.27
4 | O=C(NCC(F)(F)F)N1CCC12CCC2 | 7 | -1.1
5 | CCNC(=O)c1cc(N(C)S(C)(=O)=O)ccc1Cl | -7 | 1.2
6 | CN1CCN([C@H]2CN(Cc3ccccc3OC(F)(F)F)C[C@@H]2O)CC1 | 0 | 0.07
7 | CNC(=O)c1nc(-c2ccccc2)n2c1CCN(C(=O)c1ccccc1)CC2 | 0 | 0.01
8 | N#Cc1ccc(C(=O)N[C@H]2CCCc3c2cnn3-c2ccccn2)cc1 | 38 | -5.52
9 | Cc1cnc(C(=O)NC2CCCCCCC2)cn1 | 18 | -2.33
10 | Cc1cc(N2CCN(C(=O)c3ccc(F)cc3)CC2)nc(-c2cccc(F)c2)n1 | 1 | -0.13
11 | CCCOc1ccc(-c2ccc(C(=O)N[C@H]3CCNC3=O)cc2)cc1CO | -7 | 1.45
12 | C[C@@H](c1ccccc1)N1c2nonc2C(N)=C(N)c2nonc21 | -7 | 0.78
13 | CC[C@@H](CO)NC(=O)c1c(OC)cccc1OC | -9 | 1.79
14 | Cn1nc(C(=O)O)c2c1CCN(Cc1cc(CN3CCCCC3)cs1)C2 | 6 | -0.79
15 | COc1ccc2c(c1)CC[C@H](C(=O)Nc1ccc(C(=O)O)nc1)C2 | 6 | -0.98
16 | O=C1CCCN1c1cccc(NCc2nccs2)c1 | -6 | 0.73
17 | Cc1nnsc1CNC(=O)c1cccc(CN2CCCCCC2)c1 | -3 | 0.39
18 | O=C(CN[C@H](c1ccccc1)c1cccs1)NC1CCN(Cc2ccccc2)CC1 | 2 | -0.26
19 | CC1(C)OCc2cc(CNc3ccc4oc(=O)[nH]c4c3)ccc2O1 | 96 | -13.84
20 | O=C(NC1CCCCC1)[C@@H]1CCCCC(=O)N1Cc1ccccc1 | -9 | 1.02
21 | CCc1cc(N(C)CC2(CO)CCCC2)ncn1 | -14 | 1.28
22 | O=C(c1ccco1)N1CCC2(CC1)C[C@@H](Cc1cccc(F)c1)CCO2 | -7 | 0.9

Row | Compound | % Inhibition [%] | Z score
23 | O=C(Cn1nc2c(N3CCCCCC3)nccn2c1=O)NCc1ccccc1 | -18 | 1.76
24 | CC[C@H](C)NS(=O)(=O)c1ccc(C)cc1C | 36 | -3.01
25 | O=C1N[C@H]2C[C@@H](C(=O)NC[C@@H]3CCC[C@@H](CCOc4ccccc41)O3)N(C1CCC(F)(F)CC1)C2 | 34 | -3.88
26 | CN1C[C@@H]2CC[C@H](CC1=O)N2S(=O)(=O)c1ccc(-n2cccn2)cc1 | -9 | 0.86
27 | CC1CCCCC1CC(=O)N1CCC[C@H](CO)[C@@H]1CO (stereo not given in full) | 12 | -1.58
28 | CN(C)[C@@H](CNC(=O)c1cccc(NS(=O)(=O)c2ccc3c(c2)OCCO3)c1)c1ccsc1 | -12 | 1.13
29 | Cn1ncc(CNC(=O)Cc2ccc(C3CCC3)cc2)n1 | -16 | 2.1
30 | Cc1ccc([C@H](CNC(=O)Cc2ccc(=O)[nH]c2)N2CCCC2)o1 | -13 | 1.64
31 | CC1=CCCC(C)C1CNCc1nc(N(C)C)no1 (stereo not given) | -8 | 1.27
32 | COc1cccc(-c2nc(NC3CCCCC3C)c3ccccc3n2)c1O (stereo not given) | -10 | 1.04
33 | O=C(Nc1ccccc1N1CCCC1)c1cc(Cl)c[nH]1 | -7 | 1.3
34 | O=C([C@H]1CCCN(C2CCN(Cc3cccnc3)CC2)C1)N1CCCCCC1 | -2 | 0.33
35 | O=C(OCCCF)N1CCC(O)(Cc2ccccn2)CC1 | -10 | 1.35
36 | COc1ncccc1CNC(=O)[C@H]1CCc2[nH]c(C)nc2C1 | -10 | 1.71
37 | O=C(Nc1cccc(S(=O)(=O)N2CCOCC2)c1)C1CC2CCC1C2 (stereo not given) | 2 | -0.29
38 | Cc1cccc(NC(=O)c2ccc3c(c2)C(=O)N(c2ccccn2)C3=O)c1C | 6 | -0.78
39 | CCn1c(=O)c(-c2noc(CCC(=O)O)n2)nn(-c2ccc(Cl)cc2)c1=O | -3 | 0.41
40 | COC(=O)C[C@H](N)c1ccc(Cl)c(F)c1 | 1 | -0.08
41 | O=C(NCCC(c1ccccc1)c1ccccc1)c1nc(-c2cnccn2)no1 | -4 | 0.58
42 | COc1cccc(CC(=O)N2CCC[C@H](n3c(C)cnc3C3CCOCC3)C2)c1 | 7 | -0.89
43 | Cc1nnc(CN2CCC[C@]3(C4=CCOCC4)COCC[C@@H]23)s1 | -6 | 1.04
44 | C[C@@]1(C(=O)N2CC(c3ccccn3)C2)CCCCO1 | 1 | -0.09

Row | Compound | % Inhibition [%] | Z score
45 | CN1CCCC[C@@H]1CCC(=O)N1CCN(CCc2ccccc2)C(=O)C1 | 3 | -0.41
46 | C=CCONC1CCCCC1NOCC=C (stereo not given) | -7 | 1.4
47 | O=C(C#Cc1ccc(C(F)(F)F)cc1)NCC1(CO)CCC1 | 36 | -1.15
48 | COCCN(Cc1scnc1C)C(=O)c1c(C)nn(C)c1C | -2 | 0.22
49 | CCCCN1C(=O)CC[C@@H]2CN(C(=O)c3onc4c3CCCC4)CC[C@@H]21 | -3 | 0.66
50 | CN1CCN(C(=O)[C@@H]2CCCN2C(=O)CCc2ccc(S(=O)(=O)N3CCCC3)cc2)CC1 | -18 | 1.61
51 | CC(=O)N1CC(Nc2nc3ccccc3o2)C1 | -10 | 1.28
52 | COc1ccc(CN2CCN(c3ccc(NC(=O)c4ccc(C(C)(C)C)cc4)cn3)CC2)c(OC)c1OC | -5 | 0.84
53 | COc1ccccc1CCNC1CCN(c2ccc(F)c(F)c2)CC1 | -4 | 0.59
54 | CCc1cccc(C)c1NC(=O)Cn1nc2ccc(C(=O)NCc3ccccc3)cn2c1=O | -15 | 1.31
55 | O=C(NC1CCCCC1)C1Cc2ccccc2N2CCN(CC(=O)N3CCOCC3)CC12 (stereo not given) | -8 | 1.06
56 | COc1cccc(C(=O)N2CCN(C(=O)Nc3ccncc3C)CC2)c1 | 2 | -0.16
57 | O=C(Nc1nncs1)c1ccccc1Nc1cccc(C(F)(F)F)c1 | -5 | 0.51
58 | C=CCNC(=NC1CCOCC1)NCCc1ccccc1OCC | -19 | 1.94
59 | C[C@H](NC(=O)c1ccsc1)c1nnc2n1CCCCC2 | -8 | 1.18
60 | C[C@@H](C1CC1)N(C)c1ncnc2ccsc12 | 6 | -0.72
61 | Cc1cc(OC2CCN(C(=O)Cn3cnc4ccccc43)CC2)nc(C)n1 | 0 | -0.01
62 | CC(C)[C@H](NC(=O)c1nc(=O)[nH][nH]1)c1ccccc1Cl | -2 | 0.29
63 | CC(C)N(CC(F)(F)F)C(=O)CNc1cc(CO)ccc1Cl | -9 | 1.31
64 | Cc1ncnc(NCCCc2csc(N)n2)c1C | 2 | -0.17
65 | Cc1cc(C)c(C(=O)N2CCCCCCC2)c(=O)[nH]1 | 2 | -0.36
66 | COC(=O)NC(=C(c1nc2ccccc2s1)c1nc2ccccc2s1)C(F)(F)F | 20 | -2.54

Row | Compound | % Inhibition [%] | Z score
67 | CCCc1n[nH]cc1C(=O)N1CCC[C@H]1c1nc(-c2ccccc2)no1 | -16 | 2.05
68 | CC1(C)[C@@H](NS(=O)(=O)N2CCOCC2)[C@@H]1c1ccccc1 | -9 | 1.14
69 | Cc1ccc(Nc2nc(N)nc(-c3ccsc3)n2)cc1 | -15 | 2.22
70 | O=C(O)Cc1coc(NC(=O)c2ccc(Br)cc2)n1 | -15 | 2.93
71 | O=C(Nc1ccccc1OCCc1ccccn1)N1CCCCCC1 | -16 | 3
72 | COc1cccc(C(=O)N2CC[C@]3(OC)CC[C@H](OC)C[C@H]23)c1OC | 0 | 0.06
73 | COc1ccc(-c2n[nH]c(C3CC3)c2NC(=O)C2CCC2)cc1OC | -10 | 0.94
74 | c1cncc(Cn2ncc3[nH]c(-c4ccc(CN5CCCCC5)s4)nc32)c1 | -11 | 1.55
75 | c1cc2c(cc1CNC[C@H]1CN(C3CC3)CCO1)CCO2 | -11 | 1.45
76 | Cc1ccc(C(=O)N2CCN(CC(=O)Nc3c(C)cccc3C)CC2)cc1NC(=O)c1ccco1 | 10 | -1.2
77 | CN(C)CC[C@H]1CCCCN1C(=O)c1ccnn1C(F)F | -17 | 1.83
78 | Cc1ccc(C2CC2C(=O)N2CCCC2c2ccncc2)cc1C (stereo not given) | -13 | 1.31
79 | CNC(=O)CN1CCN(Cc2ccc(Cl)cc2F)CC1=O | -18 | 1.86
80 | CCc1ccc(C(=O)N[C@H](C#N)C(C)(C)C)c(O)c1 | 0 | -0.03
81 | Cc1ncn(Cc2cccc3cccnc23)c1C | -8 | 1.29
82 | O=C(CCc1cccnc1)N1CCN(Cc2ccc(-c3cccc(Cl)c3)s2)CC1 | 3 | -0.38
83 | COc1cc(-c2cccc([C@H](C)N3CCCC3)c2)cc2cc(C(=O)O)oc12 | 4 | -0.74
84 | CN1CCCN(c2ccnc3ccsc23)CC1 | 32 | -4.37
85 | COc1ccc(CCNC(=O)N2CC(c3nc4cc(C)ccc4[nH]3)C2)cc1 | -11 | 2.05
